# In patent publication US5763625A, “Synthesis and use of β-lapachone analogs” (priority 1995, dated 1998):
# Where two headings read alike, the source gives them in different places.
# Assays:
# purified human Topo I = molecular target: T1, purified human Topo I (Homo sapiens, UniProt P11387); experiment: Topo I inhibition, DNA unwinding assay; assay type: biochemical
# T1 sequence (P11387 1-765): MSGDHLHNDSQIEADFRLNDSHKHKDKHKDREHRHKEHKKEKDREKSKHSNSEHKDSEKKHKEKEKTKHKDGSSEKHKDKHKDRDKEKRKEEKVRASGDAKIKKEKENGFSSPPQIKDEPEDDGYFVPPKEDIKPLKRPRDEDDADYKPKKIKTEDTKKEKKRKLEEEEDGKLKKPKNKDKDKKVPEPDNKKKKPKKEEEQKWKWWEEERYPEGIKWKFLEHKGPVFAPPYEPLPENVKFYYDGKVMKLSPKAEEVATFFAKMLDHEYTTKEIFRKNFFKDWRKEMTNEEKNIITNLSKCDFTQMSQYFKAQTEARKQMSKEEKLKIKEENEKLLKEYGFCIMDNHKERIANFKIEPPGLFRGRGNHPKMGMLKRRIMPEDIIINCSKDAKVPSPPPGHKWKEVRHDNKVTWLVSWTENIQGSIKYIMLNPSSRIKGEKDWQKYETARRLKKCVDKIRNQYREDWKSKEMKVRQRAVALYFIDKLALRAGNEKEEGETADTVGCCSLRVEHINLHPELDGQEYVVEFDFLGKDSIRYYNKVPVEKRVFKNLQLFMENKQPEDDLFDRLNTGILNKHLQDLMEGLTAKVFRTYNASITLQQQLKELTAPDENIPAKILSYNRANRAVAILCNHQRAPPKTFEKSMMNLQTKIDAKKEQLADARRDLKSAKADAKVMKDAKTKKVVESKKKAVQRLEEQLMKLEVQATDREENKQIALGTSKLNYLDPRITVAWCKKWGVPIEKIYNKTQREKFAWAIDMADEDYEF
# Topo I = molecular target: T2, Topo I (Cricetulus griseus, UniProt Q07050); assay type: biochemical, Chinese hamster
# T2 construct: Extracts from unirradiated CHEF/18 cells and its neoplastic derivatives; endogenous in cells; host or cells: CHEF/18 cells and neoplastic derivatives 21-2M3 and T30-4 (extracts)
# T2 sequence (Q07050 1-767): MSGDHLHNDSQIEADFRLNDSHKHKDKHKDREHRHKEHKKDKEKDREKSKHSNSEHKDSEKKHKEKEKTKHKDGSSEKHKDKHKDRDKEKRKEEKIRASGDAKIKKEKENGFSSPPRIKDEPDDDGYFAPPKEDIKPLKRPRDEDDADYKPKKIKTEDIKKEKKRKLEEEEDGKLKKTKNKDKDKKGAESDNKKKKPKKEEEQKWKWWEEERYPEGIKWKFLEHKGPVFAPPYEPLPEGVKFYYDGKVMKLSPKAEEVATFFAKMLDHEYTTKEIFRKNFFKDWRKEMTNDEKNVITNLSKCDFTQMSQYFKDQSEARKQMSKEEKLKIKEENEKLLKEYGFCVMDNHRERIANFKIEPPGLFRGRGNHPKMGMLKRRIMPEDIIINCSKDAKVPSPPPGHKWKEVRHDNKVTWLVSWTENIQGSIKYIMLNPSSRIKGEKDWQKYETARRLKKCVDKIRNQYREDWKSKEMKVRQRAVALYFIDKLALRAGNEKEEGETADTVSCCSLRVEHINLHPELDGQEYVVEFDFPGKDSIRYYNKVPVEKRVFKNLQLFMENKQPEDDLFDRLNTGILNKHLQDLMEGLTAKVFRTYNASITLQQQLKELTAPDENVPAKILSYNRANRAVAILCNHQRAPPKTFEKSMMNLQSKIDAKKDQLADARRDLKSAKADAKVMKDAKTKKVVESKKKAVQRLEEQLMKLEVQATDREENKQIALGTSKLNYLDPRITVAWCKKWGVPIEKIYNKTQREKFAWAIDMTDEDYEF
# [1] = tested on: HL60 (human promyelocytic leukemia) cells; experiment: Induction of apoptosis in HL60 cells (DNA laddering, loss of intact genomic DNA); conditions: dissolved in DMSO, various concentrations
# [2] = tested on: AMV reverse transcriptase
structure (smiles),measurement,setting,value
CC1(C)OC2=C(CC1O)C(=O)C(=O)c1ccccc12 (stereo not drawn) [3-hydroxy-β-lapachone],inhibition of Topo I,purified human Topo I; at 1 μM,Complete inhibition
CC[C@@]1(O)C(=O)OCc2c1cc1n(c2=O)Cc2cc3ccccc3nc2-1 [camptothecin],inhibition of Topo I activities,"Topo I; 50 nM-1 μM, at 30 minutes and 2 hours, CHEF/18, 21-2M3, T30-4 extracts",100%
same,inhibition of Topo I,Topo I; between 1 nM and 10 nM,partial inhibition
CC(C)=CCC1=C(O)C(=O)c2ccccc2C1=O [lapachol],induction of apoptosis,[1],nor did they induce apoptosis
CC1(C)CCC2=C(O1)C(=O)c1ccccc1C2=O [α-lapachone],inhibition of Topo I,"purified human Topo I; dissolved in DMSO, various concentrations",did not inhibit Topo I
same,induction of apoptosis,[1],nor did they induce apoptosis
CC1(C)CCC2=C(O1)c1ccccc1C(=O)C2=O [β-lapachone],cpm On Glass Fiber Filter,[2]; AMV 1 unit/reaction + 4 μM,"61,812 cpm"
same,cpm On Glass Fiber Filter,[2]; AMV 1 unit/reaction + 10 μM,"67,942 cpm"
same,cpm On Glass Fiber Filter,[2]; AMV 1 unit/reaction + 50 μM,"44,838 cpm"
same,cpm On Glass Fiber Filter,[2]; AMV 1 unit/reaction + 100 μM,"59,358 cpm"
same,cpm On Glass Fiber Filter,[2]; AMV + Topo I (3 units/reaction) + 4 μM,"14,783 cpm"
same,cpm On Glass Fiber Filter,[2]; AMV + Topo I (3 units/reaction) + 10 μM,"10,092 cpm"
same,cpm On Glass Fiber Filter,[2]; AMV + Topo I (3 units/reaction) + 50 μM,"9,431 cpm"
same,cpm On Glass Fiber Filter,[2]; AMV + Topo I (3 units/reaction) + 100 μM,"7,245 cpm"
same,effect on the decrease in reverse transcriptase activity caused by Topo I,[2]; concomitant addition with Topo I,greatly augmented
same,effect on AMV reverse transcriptase activity,[2]; without Topo I,does not influence the enzymatic activity
